Results published in PubChem BioAssay AID504332 (National Center for Advancing Translational Sciences (NCATS), 2011).
About 31,000 (8.9%) of roughly 350,000 compounds were called active. Inconclusive results, whose numbers are uncertain, are shown with a selection of clear calls. The call rests on the fitted dose curve; in most records, active means well fitted inhibition curve with a large enough effect; inconclusive means small, poorly fitted or top-dose-only effect; inactive means no such curve, though single readings can be large or run the other way. Potencies of inconclusive entries are doubtful fits and often do not repeat.
Further: nearly all actives have a fitted effect of over 75% in size.
On the % scale 0 is the no-effect control and ±100 the full control effect; potency means the concentration at half of the fitted maximal effect; tags describe the fitted curve by direction and shape.

What follows are compounds tested against Histone-lysine N-methyltransferase EHMT2 (Homo sapiens) (UniProt Q96KQ7) (assay: qHTS Assay for Inhibitors of Histone Lysine Methyltransferase G9a). Conditions: G9a H3K9 monomethylation, AlphaScreen, 2 h; activity, negative = inhibition: at 59 µM (top of the series) unless noted.
Chain of UniProt Q96KQ7 (Q96KQ7 whole entry, looked up): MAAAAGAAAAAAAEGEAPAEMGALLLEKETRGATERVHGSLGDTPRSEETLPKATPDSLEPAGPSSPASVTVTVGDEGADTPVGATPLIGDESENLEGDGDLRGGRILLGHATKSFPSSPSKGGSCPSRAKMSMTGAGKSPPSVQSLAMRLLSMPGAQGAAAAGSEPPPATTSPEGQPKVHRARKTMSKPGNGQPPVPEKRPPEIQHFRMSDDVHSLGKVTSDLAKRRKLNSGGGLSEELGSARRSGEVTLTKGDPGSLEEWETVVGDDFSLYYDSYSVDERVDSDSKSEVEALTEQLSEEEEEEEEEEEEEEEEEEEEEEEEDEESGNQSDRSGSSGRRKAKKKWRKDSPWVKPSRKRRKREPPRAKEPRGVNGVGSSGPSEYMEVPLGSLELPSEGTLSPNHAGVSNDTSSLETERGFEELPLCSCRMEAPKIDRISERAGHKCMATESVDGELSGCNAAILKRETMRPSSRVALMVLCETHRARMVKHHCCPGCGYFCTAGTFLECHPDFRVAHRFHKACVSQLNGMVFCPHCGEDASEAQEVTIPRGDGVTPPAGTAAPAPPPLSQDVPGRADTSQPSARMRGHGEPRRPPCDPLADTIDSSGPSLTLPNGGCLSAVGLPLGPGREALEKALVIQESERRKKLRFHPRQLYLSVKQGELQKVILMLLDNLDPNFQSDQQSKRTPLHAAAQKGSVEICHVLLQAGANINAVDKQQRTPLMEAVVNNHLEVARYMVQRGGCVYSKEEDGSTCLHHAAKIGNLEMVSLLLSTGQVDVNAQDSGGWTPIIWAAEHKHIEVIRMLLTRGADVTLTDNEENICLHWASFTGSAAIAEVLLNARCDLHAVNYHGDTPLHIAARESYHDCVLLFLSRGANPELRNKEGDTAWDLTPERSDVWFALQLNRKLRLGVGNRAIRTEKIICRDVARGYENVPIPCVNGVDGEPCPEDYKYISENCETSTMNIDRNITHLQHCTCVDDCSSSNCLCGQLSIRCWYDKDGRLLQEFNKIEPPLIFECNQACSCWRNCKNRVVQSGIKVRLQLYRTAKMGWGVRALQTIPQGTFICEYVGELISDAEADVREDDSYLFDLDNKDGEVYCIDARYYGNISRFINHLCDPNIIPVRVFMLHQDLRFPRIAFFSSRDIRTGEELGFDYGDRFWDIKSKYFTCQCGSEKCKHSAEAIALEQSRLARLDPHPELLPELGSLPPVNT
Procedure, shortened: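 Chemiluminescent proximity detection of H3K9 monomethylation, read after 10 min bead incubation in the dark. Reaction: 20 nM G9a, 500 nM biotin-H3K9 peptide, 20 uM SAM cofactor, 2 h, room temperature, following 15 min enzyme-compound preincubation.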
For CCc1c(C)c(C#N)c2nc3ccccc3n2c1NC, the Potency was inconclusive: 0.562 µM [inhibitor, partial curve, poor fit]. For O=c1[nH]c(CN2CCc3ccccc3C2)nc2ccccc12, the Potency was inconclusive: 2.51 µM [inhibitor, partial curve, poor fit]. For Cc1cccc(N2CCN(C(=O)c3ccccc3OCc3c(C)noc3C)CC2)c1C, the “activity, negative = inhibition” value was inactive: -18.3% [at 102 µM]. For CN(C)S(=O)(=O)c1cc(NC(=O)CSc2nn(-c3ccc(Cl)cc3)c(=S)s2)ccc1Cl, the Potency was inconclusive: 17.8 µM [inhibitor, single point]. In the case of Cc1ccc(-n2c3c(c(=O)[nH]c2=O)C(NC(=O)c2ccccc2F)(C(F)(F)F)C(=O)N3)cc1C (configuration not stated), the “activity, negative = inhibition” value is reported as inactive: 6.61%. In the case of COC(=O)[C@@]1(Cc2ccc(OC)cc2)[C@@H]2C(=CC(=O)[C@H]2CC(=O)C(=O)N(C)C)CN1C(=O)c1ccccc1, the Potency is reported as inconclusive: 79.4 µM [inhibitor, single point]. With Cc1nn(C(C)C(=O)NCCc2ccco2)c(=O)c2nn(-c3ccccc3)c(C)c12 (configuration not stated) the “activity, negative = inhibition” value was inactive: 33.3% [at 102 µM]. With COc1cc(CNCCCN2CCOCC2)ccc1OCC(=O)NC(C)(C)C the “activity, negative = inhibition” value was inactive: -8.59% [at 102 µM]. COc1ccc(N=C2C(=O)Nc3ccc(C)c(Br)c32)cc1 was tested, and the Potency was active: 11.2 µM. With COc1ccc(C(=O)Nc2ccc(-n3nncc3-c3ccc(OC)c(OC)c3)cc2)cc1 the “activity, negative = inhibition” value was inactive: 14.4%. With CCOC(=O)CCCCC(=O)c1[nH]c(=O)[nH]c1CSc1nc(C)cc(C)n1 the Potency was inconclusive: 39.8 µM [inhibitor, single point]. With CCc1cccc2cc3c(N)c(C(=O)Nc4ccc(S(=O)(=O)N5CCCC5)cc4)sc3nc12 the Potency was inconclusive: 50.1 µM [inhibitor, partial curve, poor fit]. c1ccc(-c2ccccc2OCc2nnc3n2CCC3)cc1 was tested, and the Potency was inconclusive: 79.4 µM [inhibitor, partial curve]. With COc1cc(O)c(C(CCN2CCCCC2)c2ccc(N(C)C)cc2)c(OC)c1 (configuration not stated) the Potency was inconclusive: 10 µM [inhibitor, single point]. In the case of COc1cccc(C(=O)NC(=S)Nc2ccc(Cl)c(C(=O)O)c2)c1, the Potency is reported as inconclusive: 22.4 µM [inhibitor, partial curve, poor fit]. With NC(=O)C1CCN(c2nc(-c3cccc(N)c3)cs2)CC1 the Potency was inconclusive: 3.98 µM [inhibitor, single point]. For COc1ccc(C(c2nnnn2C2CCCC2)N2CCC(C(N)=O)CC2)c(OC)c1 (configuration not stated), the Potency was inconclusive: 25.1 µM [inhibitor, full curve]. For Cc1c(C)n(C(=O)CSc2nccn2C)c2ccccc12, the Potency was inconclusive: 11.2 µM [inhibitor, partial curve, poor fit]. With O=C(NC1CCCCC1)c1cc(S(=O)(=O)N2CCOCC2)ccc1Cl the “activity, negative = inhibition” value was inactive: 6.22%. In the case of O=C(Nc1nn[nH]n1)c1cccc(Oc2ccccc2)c1, the Potency is reported as active: 39.8 µM. With COc1ccccc1Nc1ccc(S(=O)(=O)N2CCCCC2)cc1[N+](=O)[O-] the Potency was inconclusive: 25.1 µM [inhibitor, single point]. For CCOc1ccc(C2C(C(=O)c3ccco3)=C(O)C(=O)N2CCCn2ccnc2)cc1OCC (configuration not stated), the Potency was inconclusive: 79.4 µM [inhibitor, single point]. In the case of Cc1ccccc1N1CC(O)(c2ccccc2)[N+]2=C1SCC2 (configuration not stated), the Potency is reported as active: 31.6 µM. In the case of C=CCN(Cc1nc(-c2ccccc2)no1)C(=O)c1ccoc1C, the Potency is reported as inconclusive: 15.8 µM [inhibitor, partial curve, poor fit]. In the case of COc1ccc(/C=C\c2cc(OC)c(OC)cc2CC[N+](C)(C)C)cc1OC, the Potency is reported as active: 12.6 µM. In the case of CC(=O)c1cc(-c2ccc(F)cc2)n(CCC(=O)Nc2nc3c(C)cccc3s2)c1C, the “activity, negative = inhibition” value is reported as inactive: 2.84%. Cc1ccc(CN2CCSc3ccc(C(=O)NCCCN4CCOCC4)cc32)cc1 was tested, and the Potency was inconclusive: 56.2 µM [inhibitor, single point]. For Cc1ccc(-c2nn(C)c(=O)c3ccccc23)cc1CNC(=O)NC1CCCCC1, the “activity, negative = inhibition” value was inactive: -48.5% [at 102 µM]. In the case of CS(=O)(=O)N(CC(=O)N1CCCC1)c1ccc(Cl)c(Cl)c1, the Potency is reported as inconclusive: 89.1 µM [inhibitor, partial curve, poor fit]. In the case of COc1ccc(C2=NN(C(=O)c3ccccc3)C(c3ccc(OC)c(OC)c3)C2)c(O)c1 (configuration not stated), the Potency is reported as active: 70.8 µM. In the case of O=C1COc2cc(S(=O)(=O)CCC(=O)N3CCN(c4cccc(Cl)c4)CC3)c(Cl)cc2N1, the “activity, negative = inhibition” value is reported as inactive: -3.37%. In the case of Cc1cc(OCCN2CCOCC2)ccc1C(C)C, the activity, negative = inhibition is reported as inactive: -50.8% [at 2.33 µM]. With COc1ccc(-c2nn(CCC(=O)O)cc2CCC(=O)O)cc1 the Potency was inconclusive: 89.1 µM [inhibitor, single point]. With O=C(c1ccco1)N1CCN(S(=O)(=O)c2ccc(S(=O)(=O)NC3CCCCC3)cc2)CC1 the Potency was inconclusive: 100 µM [inhibitor, single point]. With COc1ccc(CN(C(=O)CO/N=C/c2ccccc2)c2ccccc2C(=O)O)cc1 the Potency was inconclusive: 22.4 µM [inhibitor, single point]. With CCOC(=O)N1CCN(C(=O)CN(c2ccccc2OC)S(=O)(=O)c2ccc(C)cc2)CC1 the Potency was inconclusive: 31.6 µM [inhibitor, full curve, poor fit]. NC(=O)CC(NC(=O)c1cccc(Br)c1)c1ccc(N2CCC(N3CCCCC3)CC2)c([N+](=O)[O-])c1 (configuration not stated) was tested, and the Potency was active: 44.7 µM. With O=[N+]([O-])c1cc(Cl)ccc1NCCc1ccccn1 the Potency was inconclusive: 1.78 µM [inhibitor, full curve, poor fit]. With CC(=O)N(/N=C/c1ccc(C)cc1)c1nc(CCl)cs1 the Potency was active: 17.8 µM. With O=C(CN1CCSc2ccccc21)N1CCN(c2cccc(Cl)c2)CC1 the Potency was inconclusive: 31.6 µM [inhibitor, single point]. With COC(=O)c1cnn(-c2ccc(C(=O)Nc3ccc(C(C)=O)cc3)cc2)c1N the activity, negative = inhibition was inactive: 6.8% [at 12.7 µM]. In the case of COc1cc(C2C3CN(C)CC=C3C(C#N)=C(N)C2(C#N)C#N)ccc1OC(C)C (configuration not stated), the Potency is reported as inconclusive: 89.1 µM [inhibitor, single point]. CCNC(=O)NC(=O)COc1ccccc1C#N was tested, and the “activity, negative = inhibition” value was inactive: -25.9% [at 102 µM]. In the case of COc1ccccc1/C=N/NC(=O)c1ccc(=O)n(C)c1, the Potency is reported as inconclusive: 0.447 µM [inhibitor, partial curve, poor fit]. In the case of O=C(CCNC(=O)c1ccc(Cl)cc1)Nc1ccccc1N1CCCC1, the Potency is reported as inconclusive: 89.1 µM [inhibitor, single point]. With Cc1ccc(Cc2nc3ccccc3nc2SCC(=O)Nc2cccc(C(F)(F)F)c2)cc1 the “activity, negative = inhibition” value was inactive: -0.77%. CCN(CC(=O)NCc1ccc(F)cc1)C(=O)c1ccc(COc2ccccc2)cc1 was tested, and the Potency was inconclusive: 79.4 µM [inhibitor, single point]. In the case of Fc1ccccc1CSc1nc2ncc(Br)cc2[nH]1, the Potency is reported as inconclusive: 89.1 µM [inhibitor, single point]. In the case of CC(C)(CO)CN1CCC(n2nccc2NC(=O)C2CCCC2)CC1, the “activity, negative = inhibition” value is reported as inactive: 20% [at 102 µM]. With Cc1ccc(-c2cc(C(=O)Nc3c(C(=O)c4ccccc4)oc4ccccc34)no2)cc1F the Potency was inconclusive: 28.2 µM [inhibitor, partial curve, poor fit]. CC(C)CC1C(C#N)=C(N)SC(N)=C1C#N was tested, and the Potency was inconclusive: 20 µM [inhibitor, single point]. In the case of Cc1ccc(S(=O)(=O)N(C(=O)c2ccncc2)c2ccc(OC(=O)c3ccncc3)cc2)c(C)c1, the Potency is reported as inconclusive: 39.8 µM [inhibitor, single point]. For O=C(c1ccc(Cl)c(Cl)c1)N1CCCC1, the Potency was inconclusive: 89.1 µM [inhibitor, single point]. With CN(Cc1ccc(OCC(O)CN2CCCCC2)cc1)Cc1ccnc2ccccc12 (configuration not stated) the Potency was active: 50.1 µM. Cc1ccc(N(C(=O)Cn2nnc3ccccc32)C(C(=O)NCc2ccco2)c2cccnc2)cc1 (configuration not stated) was tested, and the Potency was inconclusive: 63.1 µM [inhibitor, partial curve, poor fit]. For C=CCn1c(-c2cccc(OC)c2OC)n[nH]c1=S, the Potency was active: 20 µM. In the case of COc1ccc(C(=O)CC2OC(=O)c3c2ccc(OC)c3OC)cc1 (configuration not stated), the Potency is reported as inconclusive: 39.8 µM [inhibitor, single point]. COc1ccc2oc(=O)c(C(=O)N3CCN(c4ccccc4C)CC3)cc2c1 was tested, and the activity, negative = inhibition was inactive: -30.8% [at 12.7 µM]. CC(Sc1n[nH]c(N)n1)C(=O)Nc1cccc2ccccc12 (configuration not stated) was tested, and the Potency was inconclusive: 3.16 µM [inhibitor, single point]. In the case of CC12CCC(C(=O)N(CSC(=S)N/N=C\c3ccccc3O)C1=O)C2(C)C (configuration not stated), the Potency is reported as active: 4.47 µM. With NC(=S)Nc1cc(Cl)ccc1Cl the Potency was inconclusive: 56.2 µM [inhibitor, partial curve, poor fit]. With CCCCN(C(=O)c1sc2nc3n(c(=O)c2c1C)CCC3)c1c(N)n(CC(C)C)c(=O)[nH]c1=O the Potency was inconclusive: 89.1 µM [inhibitor, partial curve, poor fit]. COc1ccccc1N1CCN(/N=C/c2cccc(OC)c2OC)CC1 was tested, and the Potency was active: 50.1 µM. For COc1ccc(NC(=O)c2cc(-c3cc(OC)c(OC)c(OC)c3)nc3ccccc23)c(OC)c1, the Potency was inconclusive: 25.1 µM [inhibitor, partial curve, poor fit]. Cc1ccc(-n2c(C)cc(/C=N/Nc3ccc([N+](=O)[O-])cn3)c2C)cc1 was tested, and the Potency was inconclusive: 22.4 µM [inhibitor, single point]. For Cc1cccc(Nc2nc(N)c([N+](=O)[O-])c(N3CC(C)CC(C)C3)n2)c1 (configuration not stated), the Potency was inconclusive: 17.8 µM [inhibitor, single point]. With Cc1c(-c2ccnc3cc(C(=O)O)nn23)cnn1C the Potency was inconclusive: 89.1 µM [inhibitor, single point].
